For 130 sequences, TetR repression strength results are on record in a collection of fitness landscapes (doi:10.1038/s41467-024-54723-y).

The full ranking holds about 18,000 sequences; the median of “TetR repression strength (sort-seq, GFP reporter)” is about 0.23, and the highest 2% start at about 0.68. This is one part of the list.

This test concerns the target TetR (class B, Tn10) (UniProt P04483). Briefly: TetR repression strength (sort-seq, GFP reporter) (relative to tetO2 = 1); higher = stronger repression. As to conditions: E. coli. Summed up: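 Escherichia coli SIG10-MAX cells carried a low-copy plasmid library in which eight operator positions were randomized between a constitutive promoter and sfGFP, and TetR was expressed constitutively. After 5 h of growth at 37 °C in LB with 50 µg/mL chloramphenicol, 10^6 cells were FACS-sorted into 13 fluorescence bins, and each bin was Illumina-sequenced. Repression strength was the top bin index plus one minus the read-weighted mean bin, divided by the value for the unaltered operator. Across three independent transformations, only library members with ≥30 reads in every replicate and a CV ≤0.5 were averaged.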
Sequence of UniProt P04483 (P04483 whole entry): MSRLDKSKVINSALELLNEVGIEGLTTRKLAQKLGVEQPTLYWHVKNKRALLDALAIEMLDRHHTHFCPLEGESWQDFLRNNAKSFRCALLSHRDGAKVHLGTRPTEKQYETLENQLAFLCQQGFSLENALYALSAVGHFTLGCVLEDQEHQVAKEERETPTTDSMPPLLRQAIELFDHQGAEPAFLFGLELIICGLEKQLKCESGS
For the sequence TCCCCGGCAGTGCTGGAGA, the TetR repression strength came to 0.174.

In the case of TCCCAAAAAGTTGGGGAGA, the TetR repression strength is 0.266.

The sequence TCCCGCAAAGTTGCTGAGA came in with a TetR repression strength of 0.183.

TCCCTAACAGTGGCTGAGA showed a TetR repression strength of 0.305.

As for TCCCCGCAAGTAATGGAGA, the TetR repression strength amounted to 0.25.

TCCCCCCGAGTATCCGAGA came in with a TetR repression strength of 0.275.

On to TCCCTCGTAGTGAGGGAGA, for which the TetR repression strength was 0.283.

As for TCCCTCATAGTGCAGGAGA, the TetR repression strength was determined as 0.0808.

With TCCCAGGCAGTACGTGAGA, the TetR repression strength amounted to 0.295.

In the case of TCCCGACTAGTTGGAGAGA, the TetR repression strength came out at 0.263.

TCCCGGGTAGTCGACGAGA displayed a TetR repression strength of 0.142.

In turn, TCCCGAGAAGTATGGGAGA returned a TetR repression strength of 0.16.

Sequence TCCCAAGTAGTTTTGGAGA yielded a TetR repression strength of 0.261.

Turning to TCCCTGTGAGTGGTGGAGA, the TetR repression strength is 0.256.

For TCCCGTTCAGTAATGGAGA, the TetR repression strength was 0.409.

The sequence TCCCCATAAGTAACGGAGA registered a TetR repression strength of 0.122.

In the case of TCCCCTAAAGTGCAGGAGA, the TetR repression strength was determined as 0.106.

TCCCTATGAGTTTGGGAGA gave a TetR repression strength of 0.0296.

In turn, TCCCGAGTAGTCACTGAGA displayed a TetR repression strength of 0.231.

As to TCCCGTGTAGTGCTCGAGA, the TetR repression strength was 0.212.

TCCCCACTAGTATGGGAGA showed a TetR repression strength of 0.262.

TCCCGTTCAGTCGCCGAGA: the TetR repression strength turned out to be 0.0928.

Consider TCCCCACTAGTCCGGGAGA, for which the TetR repression strength was found to be 0.255.

Turning to TCCCTGATAGTTTAAGAGA, the TetR repression strength came to 0.119.

TCCCAGCCAGTCAGAGAGA came in with a TetR repression strength of 0.296.

In the case of TCCCTGTCAGTGTGTGAGA, the TetR repression strength was 0.198.

TCCCACTTAGTCGGGGAGA yielded a TetR repression strength of 0.428.

In the case of TCCCATAAAGTATAGGAGA, the TetR repression strength came out at 0.128.

For the sequence TCCCAATTAGTAGAGGAGA, the TetR repression strength was 0.26.

For TCCCGGGAAGTGCCAGAGA, the TetR repression strength came to 0.215.

TCCCAGAGAGTGGACGAGA returned a TetR repression strength of 0.418.

As for TCCCTGCGAGTGTTCGAGA, the TetR repression strength was found to be 0.201.

TCCCTAGCAGTGGAGGAGA yielded a TetR repression strength of 0.218.

TCCCGCGCAGTCTAAGAGA had a TetR repression strength of 0.281.

Take TCCCGGTGAGTTTCGGAGA: the TetR repression strength turned out to be 0.14.

TCCCGGTCAGTGGAAGAGA showed a TetR repression strength of 0.458.

In the case of TCCCATGGAGTGTCGGAGA, the TetR repression strength came out at 0.279.

TCCCAGTTAGTGAACGAGA displayed a TetR repression strength of 0.238.

TCCCCGTGAGTTTTGGAGA yielded a TetR repression strength of 0.159.

The sequence TCCCGTGCAGTGAGAGAGA returned a TetR repression strength of 0.236.

With TCCCATTAAGTGGTGGAGA, the TetR repression strength came to 0.179.

TCCCGGAGAGTAGCAGAGA had a TetR repression strength of 0.313.

Sequence TCCCTCTGAGTGTTCGAGA registered a TetR repression strength of 0.158.

With TCCCGAATAGTTTGGGAGA, the TetR repression strength turned out to be 0.192.

As to TCCCCCACAGTGTGAGAGA, the TetR repression strength stood at 0.205.

TCCCGTTTAGTAGGTGAGA came in with a TetR repression strength of 0.0471.

TCCCCGCGAGTTAGGGAGA registered a TetR repression strength of 0.421.

For TCCCTGCGAGTCCTTGAGA, the TetR repression strength stood at 0.143.

The sequence TCCCTGTCAGTTAGAGAGA came in with a TetR repression strength of 0.36.

Turning to TCCCGTGGAGTCGGAGAGA, the TetR repression strength amounted to 0.359.

Sequence TCCCCTGGAGTTGGTGAGA displayed a TetR repression strength of 0.24.

Take TCCCGGGCAGTTACTGAGA: the TetR repression strength worked out at 0.37.

For the sequence TCCCGGGCAGTCCAGGAGA, the TetR repression strength is 0.153.

Regarding TCCCCTGGAGTCTAGGAGA, the TetR repression strength was found to be 0.246.

TCCCATGCAGTTCGGGAGA displayed a TetR repression strength of 0.178.

For TCCCGAACAGTTTGGGAGA, the TetR repression strength came to 0.157.

TCCCCATAAGTTGCCGAGA yielded a TetR repression strength of 0.0972.

On to TCCCTTTCAGTGACTGAGA, for which the TetR repression strength worked out at 0.435.

In turn, TCCCTGGAAGTCTTAGAGA registered a TetR repression strength of 0.0949.

The sequence TCCCGTGTAGTGCTAGAGA gave a TetR repression strength of 0.274.

As to TCCCGTAGAGTTAATGAGA, the TetR repression strength was found to be 0.0993.

In the case of TCCCGAACAGTACGGGAGA, the TetR repression strength turned out to be 0.293.

For the sequence TCCCAATAAGTGTAGGAGA, the TetR repression strength is 0.346.

TCCCGGTGAGTACAAGAGA gave a TetR repression strength of 0.254.

The sequence TCCCGGCCAGTCTGCGAGA showed a TetR repression strength of 0.967.

TCCCGGGTAGTTCTTGAGA gave a TetR repression strength of 0.

In the case of TCCCGTACAGTCGTAGAGA, the TetR repression strength was found to be 0.23.

Consider TCCCGAGAAGTCATTGAGA, for which the TetR repression strength was 0.23.

Turning to TCCCTCTAAGTGCCAGAGA, the TetR repression strength was 0.286.

On to TCCCGGTTAGTTGGCGAGA, for which the TetR repression strength was 0.223.

TCCCCCTGAGTTTATGAGA displayed a TetR repression strength of 0.265.

Sequence TCCCGAAGAGTGTGCGAGA registered a TetR repression strength of 0.0738.

Turning to TCCCTATAAGTGCCTGAGA, the TetR repression strength is 0.162.

On to TCCCCGACAGTCTCTGAGA, for which the TetR repression strength was 0.23.

TCCCGTTAAGTCCTGGAGA came in with a TetR repression strength of 0.287.

With TCCCCCGGAGTGATGGAGA, the TetR repression strength is 0.136.

Consider TCCCCAACAGTACACGAGA, for which the TetR repression strength was 0.297.

Turning to TCCCCGGGAGTGAGTGAGA, the TetR repression strength is 0.157.

TCCCGTTCAGTTCAAGAGA came in with a TetR repression strength of 0.202.

As to TCCCGCAAAGTTGTAGAGA, the TetR repression strength was determined as 0.171.

TCCCGCGAAGTAAACGAGA: the TetR repression strength was found to be 0.157.

TCCCAGACAGTGGACGAGA displayed a TetR repression strength of 0.24.

TCCCGTAGAGTCACCGAGA yielded a TetR repression strength of 0.0526.

As for TCCCCTTCAGTTGTCGAGA, the TetR repression strength stood at 0.528.

In turn, TCCCACGAAGTTAGGGAGA showed a TetR repression strength of 0.155.

In turn, TCCCTAAGAGTCAGTGAGA registered a TetR repression strength of 0.304.

Sequence TCCCTTTGAGTATGCGAGA gave a TetR repression strength of 0.127.

Take TCCCGTCGAGTCTCTGAGA: the TetR repression strength was 0.232.

For the sequence TCCCCATAAGTGTGTGAGA, the TetR repression strength is 0.11.

As for TCCCTGTGAGTGCGCGAGA, the TetR repression strength was found to be 0.132.

For TCCCCAAAAGTTGGGGAGA, the TetR repression strength is 0.218.

With TCCCTTGAAGTAATCGAGA, the TetR repression strength stood at 0.

TCCCCAGCAGTATACGAGA yielded a TetR repression strength of 0.286.

On to TCCCAACGAGTCAGTGAGA, for which the TetR repression strength was 0.23.

Sequence TCCCTCGCAGTCAGTGAGA returned a TetR repression strength of 0.251.

TCCCGGTAAGTGGTTGAGA: the TetR repression strength turned out to be 0.266.

Turning to TCCCGGTAAGTACAAGAGA, the TetR repression strength amounted to 0.413.

Sequence TCCCGCTCAGTGCAGGAGA had a TetR repression strength of 0.0948.

TCCCTCGTAGTGGGAGAGA: the TetR repression strength was determined as 0.261.

TCCCAAAGAGTTGGTGAGA: the TetR repression strength stood at 0.104.

TCCCGGAGAGTATTAGAGA registered a TetR repression strength of 0.18.

As to TCCCTTTTAGTTCGAGAGA, the TetR repression strength amounted to 0.

TCCCCTTAAGTAGTCGAGA returned a TetR repression strength of 0.148.

Sequence TCCCAACTAGTGCATGAGA came in with a TetR repression strength of 0.468.

TCCCTTTCAGTATAAGAGA showed a TetR repression strength of 0.224.

TCCCACGTAGTGGGGGAGA came in with a TetR repression strength of 0.213.

For the sequence TCCCGTCTAGTGTCCGAGA, the TetR repression strength amounted to 0.375.

As to TCCCGCACAGTCTGTGAGA, the TetR repression strength came out at 0.149.

The sequence TCCCTACGAGTTGGGGAGA yielded a TetR repression strength of 0.114.

TCCCCTGAAGTACTGGAGA came in with a TetR repression strength of 0.0389.

As for TCCCCTGAAGTTTCCGAGA, the TetR repression strength was 0.283.

Regarding TCCCGTTAAGTAGGTGAGA, the TetR repression strength came out at 0.33.

Consider TCCCTGGTAGTCACAGAGA, for which the TetR repression strength turned out to be 0.282.

The sequence TCCCCAGTAGTACCAGAGA came in with a TetR repression strength of 0.139.

Take TCCCGCCGAGTCAGGGAGA: the TetR repression strength came to 0.225.

TCCCAGGGAGTGGCCGAGA yielded a TetR repression strength of 0.281.

TCCCGAGAAGTTTCTGAGA: the TetR repression strength was found to be 0.0814.

Take TCCCGGAGAGTGTTGGAGA: the TetR repression strength is 0.211.

For TCCCAGTCAGTACTTGAGA, the TetR repression strength amounted to 0.219.

As to TCCCTAAGAGTGGATGAGA, the TetR repression strength came out at 0.162.

For TCCCGGCTAGTAGGGGAGA, the TetR repression strength was found to be 0.27.

With TCCCGGGTAGTGGTAGAGA, the TetR repression strength came out at 0.272.

For the sequence TCCCAAACAGTCCGTGAGA, the TetR repression strength turned out to be 0.424.

Sequence TCCCTTTGAGTCTTAGAGA came in with a TetR repression strength of 0.291.

On to TCCCAGAAAGTGACTGAGA, for which the TetR repression strength is 0.0441.

As for TCCCTAACAGTTACCGAGA, the TetR repression strength came to 0.0473.

TCCCGAGCAGTCCGAGAGA registered a TetR repression strength of 0.193.

As for TCCCGGGTAGTAGGAGAGA, the TetR repression strength came out at 0.203.

TCCCTATGAGTTCGAGAGA showed a TetR repression strength of 0.195.

Sequence TCCCGGGTAGTTCAGGAGA had a TetR repression strength of 0.161.
